{"source": "paper PMC4336329", "about": "(PLoS ONE, 2015)", "note": "Out of some 310,000 compounds screened, about 2,200 (0.71%) showed an effect of 50% or more. The effect is printed as a negative number. The list shows a part of the results."}
{"target": "human ether-à-go-go-related gene (hERG) potassium channel (human, UniProt Q12809)", "sequence (Q12809 whole entry, looked up)": "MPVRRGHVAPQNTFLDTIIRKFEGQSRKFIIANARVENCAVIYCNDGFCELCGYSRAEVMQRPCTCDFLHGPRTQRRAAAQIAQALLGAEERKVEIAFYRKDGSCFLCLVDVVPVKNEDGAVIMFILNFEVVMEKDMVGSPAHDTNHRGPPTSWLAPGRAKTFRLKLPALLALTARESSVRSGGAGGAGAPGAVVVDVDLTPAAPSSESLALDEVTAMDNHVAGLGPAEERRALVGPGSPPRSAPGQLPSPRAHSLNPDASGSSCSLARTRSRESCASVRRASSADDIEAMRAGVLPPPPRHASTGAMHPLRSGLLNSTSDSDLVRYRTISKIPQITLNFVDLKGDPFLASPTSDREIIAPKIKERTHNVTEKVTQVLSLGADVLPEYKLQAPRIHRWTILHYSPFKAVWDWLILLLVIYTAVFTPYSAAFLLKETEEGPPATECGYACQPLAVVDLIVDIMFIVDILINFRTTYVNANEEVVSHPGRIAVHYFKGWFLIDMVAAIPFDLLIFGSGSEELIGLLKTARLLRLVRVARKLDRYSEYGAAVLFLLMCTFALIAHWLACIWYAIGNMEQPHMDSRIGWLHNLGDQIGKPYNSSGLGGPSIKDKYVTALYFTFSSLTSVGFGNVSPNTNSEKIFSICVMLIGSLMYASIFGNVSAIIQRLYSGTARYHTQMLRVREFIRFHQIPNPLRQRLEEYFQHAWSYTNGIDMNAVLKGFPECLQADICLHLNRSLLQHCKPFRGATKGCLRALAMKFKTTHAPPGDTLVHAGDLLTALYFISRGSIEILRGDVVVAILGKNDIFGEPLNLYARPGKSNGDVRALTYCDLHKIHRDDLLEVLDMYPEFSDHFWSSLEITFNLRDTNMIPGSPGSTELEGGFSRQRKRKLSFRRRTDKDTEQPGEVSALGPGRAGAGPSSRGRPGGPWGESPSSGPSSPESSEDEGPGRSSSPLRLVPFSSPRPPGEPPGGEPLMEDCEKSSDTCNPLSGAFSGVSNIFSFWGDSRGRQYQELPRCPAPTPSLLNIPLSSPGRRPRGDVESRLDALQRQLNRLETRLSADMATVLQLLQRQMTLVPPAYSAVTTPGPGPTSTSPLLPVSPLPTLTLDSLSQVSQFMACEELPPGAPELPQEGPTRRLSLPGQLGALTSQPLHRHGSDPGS", "experiment": "primary screen, population patch clamp on CHO cells stably expressing hERG", "units": {"hERG current change (%, negative = inhibition) at 1uM": "%"}}
{"smiles": "O=C(COC(=O)Cc1cccc(C(F)(F)F)c1)Nc1cccc2ccccc12", "hERG current change (%, negative = inhibition) at 1uM": 11.6}
{"smiles": "CC1CC(C)CN(C(=O)CCc2nnc3ccc(N4CCCCC4)nn23)C1", "note": "(centres unmarked)", "hERG current change (%, negative = inhibition) at 1uM": 4.1}
{"smiles": "CCOc1ccc(NC(=S)c2ccc3ccccc3n2)cc1", "hERG current change (%, negative = inhibition) at 1uM": 5.21}
{"smiles": "CC(C)c1onc(C(=O)N2CCN(c3ccccc3)CC2)c1[N+](=O)[O-]", "hERG current change (%, negative = inhibition) at 1uM": 12.9}
{"smiles": "CC(=O)C1=C(C)NC(SCSc2ccccc2)=C(C#N)C1c1cccnc1", "note": "(centres unmarked)", "hERG current change (%, negative = inhibition) at 1uM": 5.28}
{"smiles": "CCC/C(O)=C1\\C(=O)CC(C)(C)CC1=Nc1ccccc1O", "hERG current change (%, negative = inhibition) at 1uM": 4.5}
{"smiles": "O=C(CCC1CCCCC1)NCCN1C2=NC[C@H](Cc3ccccc3)N2C[C@H]1Cc1ccc(O)cc1", "hERG current change (%, negative = inhibition) at 1uM": 11.4}
{"smiles": "CCCC1CCc2[nH]nc(C(=O)NN)c2C1", "note": "(centres unmarked)", "hERG current change (%, negative = inhibition) at 1uM": 13.6}
{"smiles": "Cc1nc(-c2ccc(Cl)cc2)sc1C(=O)O", "hERG current change (%, negative = inhibition) at 1uM": 13}
{"smiles": "COc1ccc2c(c1)[nH]c1c(C)nccc12.Cl", "hERG current change (%, negative = inhibition) at 1uM": -0.728}
{"smiles": "CCOc1ccc(CN2CCN(Cc3nc(C(C)C)cs3)CC2CCO)cc1", "note": "(centres unmarked)", "hERG current change (%, negative = inhibition) at 1uM": -85.5}
{"smiles": "Cn1cc(CNC(=O)c2ccc(OC3CCN(Cc4ccccn4)CC3)cc2)cn1", "hERG current change (%, negative = inhibition) at 1uM": 12.3}
{"smiles": "COc1ccc(S(=O)(=O)N2CCNC(=O)CC2)cc1", "hERG current change (%, negative = inhibition) at 1uM": 11.2}
{"smiles": "CC(=O)c1ccc(NC(=S)NCCc2cccc(Cl)c2)cc1", "hERG current change (%, negative = inhibition) at 1uM": -5.56}
{"smiles": "Cc1n[nH]c(=S)n1-c1cccc(Cl)c1", "hERG current change (%, negative = inhibition) at 1uM": 13.9}
{"smiles": "O=C(C[N+]12CCC(CC1)C(C(O)(c1ccccc1)c1ccccc1)C2)c1ccc(Br)cc1.[Br-]", "note": "(centres unmarked)", "hERG current change (%, negative = inhibition) at 1uM": 5.51}
{"smiles": "CCCCN(C(=O)CCC(=O)Nc1cc(C)on1)C(C(=O)NC1CCCC1)c1cccc(OC)c1", "note": "(centres unmarked)", "hERG current change (%, negative = inhibition) at 1uM": 13.7}
{"smiles": "Cc1csc2ncc(C(=O)Nc3cccc(C(F)(F)F)c3)c(=O)n12", "hERG current change (%, negative = inhibition) at 1uM": 3.37}
{"smiles": "O=C(Cn1cc(C(F)(F)F)ccc1=O)N/N=C/c1ccc(F)cc1", "hERG current change (%, negative = inhibition) at 1uM": 8.87}
{"smiles": "Cc1ccc(NC(=S)NCCc2cnc[nH]2)cc1C", "hERG current change (%, negative = inhibition) at 1uM": 9.41}
{"smiles": "CC(=O)O[C@H]1CC[C@@]2(C)[C@@H](CC[C@@H]3[C@@H]2CC[C@]2(C)[C@@H](C(C)(C)O)C[C@@H]32)C1", "hERG current change (%, negative = inhibition) at 1uM": 8.13}
{"smiles": "Cc1ccc(S(=O)(=O)NNC(=O)c2snnc2C)cc1", "hERG current change (%, negative = inhibition) at 1uM": 5.74}
{"smiles": "CSc1nc([O-])cc(=O)n1-c1ccc(F)cc1.[K+]", "hERG current change (%, negative = inhibition) at 1uM": 7.49}
{"smiles": "CCCNc1c(NS(=O)(=O)c2ccc(C)c(C)c2)c(=O)oc2ccccc12", "hERG current change (%, negative = inhibition) at 1uM": -6.38}
{"smiles": "CC(C)CCN1CCN(C/C=C/c2ccco2)CC1CCO", "note": "(centres unmarked)", "hERG current change (%, negative = inhibition) at 1uM": -10.5}
{"smiles": "CCOC(=O)C1=C(C)N(Cc2ccccc2)C(=O)NC1c1ccccc1OS(=O)(=O)c1ccccc1[N+](=O)[O-]", "note": "(centres unmarked)", "hERG current change (%, negative = inhibition) at 1uM": 7.99}
{"smiles": "COC(=O)c1c(NC(NC(=O)CC(C)C)C(Cl)(Cl)Cl)sc2c1CCC2", "note": "(centres unmarked)", "hERG current change (%, negative = inhibition) at 1uM": 2.49}
{"smiles": "CC(C)Nc1ncnc2c1cnn2Cc1ccccc1Cl", "hERG current change (%, negative = inhibition) at 1uM": 17.2}
{"smiles": "CCOC(=O)c1sc2c(c1C)c(=O)n(CCO)c(=O)n2Cc1ccccc1", "hERG current change (%, negative = inhibition) at 1uM": 5.75}
{"smiles": "CC1(C)Cc2c(sc3c2c(=N)n(Cc2ccco2)c(=O)n3Cc2ccc(Cl)cc2)CO1", "hERG current change (%, negative = inhibition) at 1uM": 3.85}
{"smiles": "COc1ccc(NC(=S)NC(=O)/C=C/c2ccco2)c(OC)c1", "hERG current change (%, negative = inhibition) at 1uM": 4.88}
{"smiles": "COc1ccc(CNC(=O)COC(=O)CNC(=O)c2sc3ccccc3c2Cl)cc1OC", "hERG current change (%, negative = inhibition) at 1uM": 14.7}
{"smiles": "CN(C(=O)CSc1n[nH]c(-c2cccs2)n1)C1CCS(=O)(=O)C1", "note": "(centres unmarked)", "hERG current change (%, negative = inhibition) at 1uM": 11.6}
{"smiles": "Cc1cc2c(=O)oc(-c3ccc(Br)cc3)nc2s1", "hERG current change (%, negative = inhibition) at 1uM": 12.8}
{"smiles": "O=C(CSc1nnc(SCc2ccc(Cl)cc2)s1)N/N=C/c1ccc(Cl)cc1Cl", "hERG current change (%, negative = inhibition) at 1uM": 9.38}
{"smiles": "O=C(/C=C/c1ccco1)Nc1ccccc1C(=O)Nc1cccc(C(=O)O)c1", "hERG current change (%, negative = inhibition) at 1uM": 15.9}
{"smiles": "CC(=O)C(C)Oc1ccc2c3c(c(=O)oc2c1)CCCCC3", "note": "(centres unmarked)", "hERG current change (%, negative = inhibition) at 1uM": 5.08}
{"smiles": "O=C(NC1CCCC1)C1(c2ccccc2)CCN(S(=O)(=O)c2ccccc2)CC1", "hERG current change (%, negative = inhibition) at 1uM": 1.27}
{"smiles": "COc1ccc(-n2nnnc2SCC(=O)N2CCCC2=O)cc1", "hERG current change (%, negative = inhibition) at 1uM": 6.98}
{"smiles": "COc1cccc(OCC(O)CN2C(C)CCCC2C)c1.Cl", "note": "(centres unmarked)", "hERG current change (%, negative = inhibition) at 1uM": 7.18}
{"smiles": "CCC(C)[C@H](NC(=O)N1CC(=O)Nc2ccccc21)C(=O)N1CCC[C@H]1C(=O)O", "note": "(some centres unmarked)", "hERG current change (%, negative = inhibition) at 1uM": 3.03}
{"smiles": "O=c1[nH]c2cc3c(cc2cc1CN(Cc1ccco1)C(=S)NCC1CCCO1)OCCO3", "note": "(centres unmarked)", "hERG current change (%, negative = inhibition) at 1uM": 15.1}
{"smiles": "COc1ccc(Cn2nc(C)n(N(C)c3ncc(C(F)(F)F)cc3Cl)c2=O)cc1", "hERG current change (%, negative = inhibition) at 1uM": 10}
{"smiles": "O=C(Nc1ccccn1)c1cccc(S(=O)(=O)N2CCOCC2)c1", "hERG current change (%, negative = inhibition) at 1uM": 5.85}
